Source: the RNAGym collection of RNA variant scans (doi:10.7554/elife.90254)
The source gives no read counts; variants with many changes may rest on few reads.

B1: LINE1-full (parent)
chain: UACGUAGGUGGUUUUCCCCUGAUAGUGCUAAGGGGGCCUGGAAGUUUGGACUGGGCAGAGCUCAACACAGCGUGGCAAAGUGGCUGUGGCUAGACUGCCUCUCUGGAUUCCUCGUCACUCAGCAGGGCAUCUCUGAGAGAAAUGCC

Variants of: B1
Assay: self-cleavage, relative activity (ratio to wild type); higher = more cleavage; in vitro, sequencing; the parent is a self-cleaving ribozyme

Variant | self-cleavage
UACGUAGGUGGUUUUCCCCUGAUAGUGCUAAGGGGGCCUGGAAGUUUGGGCUGGGCAGAGCUCAACACAGCGUGGCAAAGUGGCUGUGGCUAGACUGCCUCUCUGGAUUCCUCGUCACUCAGCAGGGCAUCUCUAAGAGAAAAGCC [A50G G135A U143A] | 0.59
UACGUAGGUGGUUUUCCCCUGAUAGUGCUAAGGGGGCCUGGAAGUUUGGGCUGGGCAGAGCUCAACACAGCGUGGCAAAGUGGCUGUGGCUAGACUGCCCCUCUGGAUUCCUCGUCACUCAGCUGGGCAUCCCUGAGAGAAAUGCC [A50G U100C A124U U132C] | 2.3
UACGUAGGUGGUUUUCCCCUGAUAGUGCUAAGGGGGCCUGGAAGUUUGGGCUGGGCAGAGCUCAACACAGCGUGGCAAAGUGGCUGUGGCUAGACAGCCUCUCUGGAUUCCUCGUCACUCAGCAGGGCACCUCUGAGAGAAAUGCC [A50G U96A U130C] | 0
UACGUAGGUGGUUUUCCCCUGAUAGUGCUAAGGGGGCCUGGAAGUUUGGGCUGGGCAGAGCCCAACACAGCGUGGCUAAGUGGCUGUGGCUAGACUGCCUCUCUGGAUUCCUCGUCACUCAGCAGGGCAUCUCUGAGAGAAAUGCC [A50G U62C A77U] | 0.13
UACGUAGGUGGUUUUCCCCUGAUAGUGCUAAGGGGGCCUGGAAGUUUGGGCUGGGCAGAGCUCAACACAGCGUGGCAAAGUGGCAGUGGCUAGACUGCCUCUCUGGAUUCCUCGUCACUCAGCAGGGCAUCUCUGAGAGAGAUGCC [A50G U85A A141G] | 0.1
UACGUAGGUGGUUUUCCCCUGAUAGUGCUAAGGGGGCCUGGAAGUUUGGGCUGGGCAGAGCUCAACACAGCGUGGCAAAGUGGCAGUGGCUAGACUGCCACUCUGGAUUCCUCGUCACUCAGCAGGGCAUCUCUGAGAGAAGUGCC [A50G U85A U100A A142G] | 0.03
UACGUAGGUGGUUUUCCCCUGAUAGUGCUAAGGGGGCCUGGAAGUUUGGGCUGGGCAGAGCCCAACACAGCGAGGCAUAGUGGCUGUGGCUAGACUGCCUCUCUGGAUUCCUCGUCACUCAGCAGGGCAUCUCUGAGAGAAAUGCC [A50G U62C U73A A78U] | 0.02
UACGUAGGUGGUUUUCCCCUGAUAGUGCUAAGGGGGCCUGGAAGUUUGGGCAGGGCAGAGCUCAACACAGCGAGGCAAAGUGGCUGUGGCUAGACUGCCUCUCUGGAUUCCUCGUCGCUCAGCAGGGCAUCUCUGAGAGAAAUGCC [A50G U52A U73A A117G] | 1.53
UACGUAGGUGGUUUUCCCCUGAUAGUGCUAAGGGGGCCUGGAAGUUUGGGCUGGGCAGAGCUCAACACAGCGUGGCAAAGUGGCUGUGGCUAGACUGCCUCUCUGUAUUCCUCGUCACUCAGCAGGGCACCUCUGAGAGAAAUGCC [A50G G106U U130C] | 0.71
UACGUAGGUGGUUUUCCCCUGAUAGUGCUAAGGGGGCCUGGAAGUUUGGGCUGGGCAGAGCACAACACAGCGUGGCAAAGUGGCUGUGGCUAGACUGCCUCUCUGGAUUCCUCGUCACUCAGCAGGGCAUCACUGAGAGAAACGCC [A50G U62A U132A U143C] | 0.14
UACGUAGGUGGUUUUCCCCUGAUAGUGCUAAGGGGGCCUGGAAGUUUGGGCUGGGCAGAGCUCAACACAGCGUGGCAAAGUGGCUGUGGCUAGACUGCCUCUCUGGAUUCCUCACCACUCAGCAGGGCAUCUCUGAGAGAAAUGCC [A50G G114A U115C] | 1.07
UACGUAGGUGGUUUUCCCCUGAUAGUGCUAAGGGGGCCUGGAAGUUUGGGCUGGGCAGAGCUCAACACAGCGAGGCAAGGUGGCUGUGGCUAGACUGCCUCUCUGGAUUCCUCGUCACUCAGCAGGGCAUCUCUGAGAGAAAUGCC [A50G U73A A79G] | 0.47
UACGUAGGUGGUUUUCCCCUGAUAGUGCUAAGGGGGCCUGGAAGUUUGGGCUGGGCAGAGCUCAACACAGCGUGGCAAAGUGGCUGUGGCUAGACAGCCUCUCUGGAUUCCUUGUCACUCAGCAGGGCAUCUCUGAGAGAAAUGCC [A50G U96A C113U] | 0
UACGUAGGUGGUUUUCCCCUGAUAGUGCUAAGGGGGCCUGGAAGUUUGGGCUGGGCAGAGCACAGCACAGCGUGGCAAAGUGGCUGUGGCUAGACAGCCUCUCUGGAUUCCUCGUCACUCAGCAGGGCAUCUCUGAGAGAAAUGCC [A50G U62A A65G U96A] | 0.06
UACGUAGGUGGUUUUCCCCUGAUAGUGCUAAGGGGGCCUGGAAGUUUGGGCUGGGCAGAGCACAACACAGCGUGGCAAAGUGGCUGUGGCUAGACUGCUUCUCUGGAUUCCCCGUCACUCAGCAGGGCAUCUCUGAGAGAAAUGCC [A50G U62A C99U U112C] | 0.05
UACGUAGGUGGUUUUCCCCUGAUAGUGCUAAGGGGGCCUGGAAGUUUGGGCUGGGCAGAGCCCAACACAGCGAGGCAAAGUGGCUGUGGCUAGACUGCCCCUCUGGAUUCCUCGUCACUCAGCAGGGCAUCUCUGAGAGAAAUGCC [A50G U62C U73A U100C] | 0
UACGUAGGUGGUUUUCCCCUGAUAGUGCUAAGGGGGCCUGGAAGUUUGGGCCGGGCAGAGCUCAGCACAGCGUGGCAAAGUGGCUGUGGCUAGACUGCCUCUCUGGAUUCCUCGUCACUCAGCAGGGCAUCUCUGGGAGAAAUGCC [A50G U52C A65G A136G] | 0
UACGUAGGUGGUUUUCCCCUGAUAGUGCUAAGGGGGCCUGGAAGUUUGGGCUGGGCAGAGCACAACACAGCGGGGCAAAGUGGCUGUGGCUAGACUGCCUCUCUGGACUCCUCGUCACUCAGCAGGGCAUCUCUGAGAGAAAUGCC [A50G U62A U73G U108C] | 0.11
UACGUAGGUGGUUUUCCCCUGAUAGUGCUAAGGGGGCCUGGAAGUUUGGGCUGGGCAGAGCCCAACACAGCGUGGCAAAGUGGCUGUGGCUAGACUGCCUCUCUGGAUUCCUCGUCAUUCGGCAGGGCAUCUCUGAGAGAAAUGCC [A50G U62C C118U A121G] | 0.09
UACGUAGGUGGUUUUCCCCUGAUAGUGCUAAGGGGGCCUGGAAGUUUGGGCUGGGCAGAGCUCAACACAGCGUGGCAAAGAGGCUGUGGCUAGACUGCCUCCCUGGAUUCCCCGUCACUCAGCAGGGCAUCUCUGAGAGGAAUGCC [A50G U81A U102C U112C A140G] | 2.53
